Data taken from PMC12136788.
Some of the results follow.

T1: UNK ZnF1-3 (human, UniProt Q9C0B0 31-174)
T1 sequence: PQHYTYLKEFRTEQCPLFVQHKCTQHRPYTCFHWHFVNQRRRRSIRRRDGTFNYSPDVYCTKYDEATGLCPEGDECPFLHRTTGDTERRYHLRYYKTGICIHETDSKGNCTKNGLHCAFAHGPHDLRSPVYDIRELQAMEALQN

B1: chr16:94651144:94651145:+_ENSMUSG00000040785_ENSMUST00000117648|mus_hu|mus_mus_mus_hu_True|18_108 (ssRNA)
RNA: GGGAGUUCUACAGUCCGACGAUCAUUCUCUUGGAUCAAGUGGCGAAUAACAUAGUCCACUGCUUCAUUUAGAAAAUUUCUGCUAGAAAAACAGGUUGUAUAGUCUUCUGUGCUCAAAACCUUCCAAGAAAGCAAUUCUUUGAGCAACAGAGGAUUGAGCAUCA
B2: 56803057_56803840_1029_CDS_ENSMUSG00000028431_ENSMUST00000030140|mouse|control|control (ssRNA)
RNA: GGGAGUUCUACAGUCCGACGAUCAAGCACCGAGGAAUCUGCAUUCCACAGCAGGUCAUUUACCUUAACUUCAUCUUUUAAGAAAGGAAGUGUAAAAUGUCCAUGAAGAAGUCCAUUUUUCUCAAAAAACACAACAUCUUGCUGCAACAGAGGAUUGAGCAUCA
B3: chr5:21408736:21408737:-_ENSMUSG00000042453_ENSMUST00000161356|mus_hu|mus_mus_mus_hu_False|8_98 (ssRNA)
RNA: GGGAGUUCUACAGUCCGACGAUCGUUGACAGAGUUGUAAAUGGUGGCUUCAUGGAACUGGAAAGGGGAGCAGCCAAUGCUGUUAGAAGAGGAAGGAAGGCACUGGGUCUGUACGAGCUGCCAGGAAUCGGACCUUGCAUCCUUCAACAGAGGAUUGAGCAUCA
B4: chr1:84735391:84735392:-_ENSMUSG00000026219_ENSMUST00000027421|perfect_dup|FALSE|FALSE (ssRNA)
RNA: GGGAGUUCUACAGUCCGACGAUCCAUUGCUCGGUCCCGAUCAAAUGCAGUUACAUAAAAAAGCAUUUGCCGGGUAUCAAAAGGAAAGAAAAAUGGGCAGGUUUUUCCUAGCUCAGUAAGCCAUGUUGGGAUGUUUCCUGUCAUCAACAGAGGAUUGAGCAUCA
B5: chr9:14812383:14812384:-_ENSMUSG00000031934_ENSMUST00000164273|mus_mus|mus_mus_mus_hu_True|38_78 (ssRNA)
RNA: GGGAGUUCUACAGUCCGACGAUCAUAGCCCAGGUAGAUACACGCUAACAGUAUAAUCACAAAUGUCAGCAGGCGGCAGCUAAUGUACUUGAUGAUUAAAUGACUAGAAUUUUUCUUUGUCUUCAAGUACUGCUCCACAAUUGGCAACAGAGGAUUGAGCAUCA
B6: chr6:86474593:86474594:-_ENSMUSG00000051695_ENSMUST00000053015|mus_mus|motif|central (ssRNA)
RNA: GGGAGUUCUACAGUCCGACGAUCCAUUUCUUAUCGACAAACAGAAAAUAAAAUCCAUGAGCCAAAAAAACCCAAACGAAACGGAAAACAGGGAAAAGCUUAUAAAACUAAAUAUGGAUCCCAGCAUUAACGGCUGAACAGAGACAACAGAGGAUUGAGCAUCA
B7: chr9:91931296:91931297:+_ENSG00000123975_ENST00000314355|hu_mus|FALSE|FALSE (ssRNA)
RNA: GGGAGUUCUACAGUCCGACGAUCAGAUUAGAUGAUCCCAGCUGCACUUCAUUUUUGUUGUUCUUUUGGAAGAGGUCGUCUAAAGAGAAGAAUAUGCGGUUCUGGCUCAUGAAUCAUGUAAUGAACCCAUCCUAGACUCUGUUGCAACAGAGGAUUGAGCAUCA
B8: 16560896_16561016_1087_3pUTR_ENSMUSG00000025939_ENSMUST00000117146|mouse|control|control (ssRNA)
RNA: GGGAGUUCUACAGUCCGACGAUCUAAUCCCACAACAACUGAUAAAUUCAUUUCAUAGGCCCUAUCAUGCAUUAAUCACCAAGUGGCAGGAGUUAAGAAAACUCUUCCUUUUACAACGUCCAUUGCCGGCAAUGAACGUCCCCACAACAGAGGAUUGAGCAUCA
B9: chr4:17845017:17845018:+_ENSG00000109805_ENST00000514176|hu_mus|hu_hu_hu_mus_False|18_38 (ssRNA)
RNA: GGGAGUUCUACAGUCCGACGAUCGCUCUCUUAACUUGUAUCUUCAUUAAGGAACUCUGCAAGGUUAAGUUUACUUUUCUGUAGCGCAGCUGUUUUGCUCGUCUUGGGUAAUCUCAUUUCAUUUCUGGAUGGUGGUUCAUGAUCCAACAGAGGAUUGAGCAUCA
B10: chr11:106642694:106642695:-_ENSMUSG00000020719_ENSMUST00000021062|mus_mus|FALSE|FALSE (ssRNA)
RNA: GGGAGUUCUACAGUCCGACGAUCAAUCUGGAAUUAUAAAAUCCAUUGUCUCUAACUUCUUCCCAUACAAACAGAUCAUCCUAAGGGCCUUCUGAGUUCCUCUCCUAAAUCCAGGAAUGGGAAGUAGUCAACUUUCCUUGUGUACAACAGAGGAUUGAGCAUCA
B11: chr11:77336104:77336105:-_ENSG00000074201_ENST00000525064|hu_mus|hu_hu_hu_mus_False|18_88 (ssRNA)
RNA: GGGAGUUCUACAGUCCGACGAUCCUCACACAUUGCUGUGAACAUCGCCUCCAACGCUGACUUAUCACUGGGCACAAAUCGAAAUUCAGAAAUGGGUUCAACAUCAUCAUUGUCUUCUUCCUCUUCUUCAGAGAGAGGUUCUUUCAACAGAGGAUUGAGCAUCA
B12: chr8:95500983:95500984:-_ENSG00000164944_ENST00000437199|hu_hu|hu_hu_hu_mus_True|68_88 (ssRNA)
RNA: GGGAGUUCUACAGUCCGACGAUCAGAACACAUCUAUCGAGUAAAGGGAGCGUACAUACGGCCUCUAACCACUGCCUCACUAACAAACUUUCCUCUCGAGCCUCCACUGCCGCUAUUUGUACUAGCCCAGGACGGUCCCAGGCCCAACAGAGGAUUGAGCAUCA
B13: chr8:27252840:27252841:+_ENSMUSG00000013878_ENSMUST00000014022|mus_mus|motif|central (ssRNA)
RNA: GGGAGUUCUACAGUCCGACGAUCCAUGUCACAGCCAUCAAAGACAACCAAAUCAGUAUGAACCUCAGUAGUUAGGCGUCGGAUACACAUUUCCUCAUUCUGCCCAAGGCACGAUGAAUCUGAGCCAAAUAAUGCCAUCUACAACAACAGAGGAUUGAGCAUCA
B14: chr14:21319760:21319761:-_ENSMUSG00000021816_ENSMUST00000161445|mus_mus|motif|central (ssRNA)
RNA: GGGAGUUCUACAGUCCGACGAUCAGCCAGCAGCAAAUCACCCUGGUGGUUUUUAAAGCAACUGGAGUACUCACAAUAAACGGAAAUUUCUCAUAAUAUCUACGUAACCUAUACAUGUUGUACCUGUACAUCAUAGGUCUAUAUCAACAGAGGAUUGAGCAUCA
B15: 18853758_18856852_6590_CDS_ENSG00000157106_ENST00000446231|human|control|control (ssRNA)
RNA: GGGAGUUCUACAGUCCGACGAUCUUGCAAACUUAGCAUUAUCUCUUUAAAUGGAAUCCAGCUGCUCCCAGGCUUUGCAGGGUUCAAUGGAGUCUUCAGUUUUUCUAGGGCAUUUUCAAUGGCAUCACCAUAGUUAUCCUGAAACAACAGAGGAUUGAGCAUCA
B16: chr7:127792870:127792871:+_ENSMUSG00000030884_ENSMUST00000033176|mus_mus|FALSE|FALSE (ssRNA)
RNA: GGGAGUUCUACAGUCCGACGAUCUGUGAAGUGGUUCUGAACAAAGUAAUGUAAUUCCUCUGAUGUUAUCUUCCCCAUCCUAUAGUCAGGACAGUACAAAGGAUUAGCCAAGGCAUUCUUGUAGGCAACAUCAUGCAAGUUCUCCAACAGAGGAUUGAGCAUCA
B17: chr1:220276048:220276049:+_ENSG00000067704_ENST00000302637|hu_hu|hu_hu_hu_mus_True|18_88 (ssRNA)
RNA: GGGAGUUCUACAGUCCGACGAUCGCAAAUUGCCUGGUUGGCGGGAAUCGUCCAAGGCUGGGUGGUCCAAACUAAAACGCUAACAGGGGAUGAGGCAUCUGUAAGAGACUCCAACUUUGGAGAAGGCCUCAGGAGGGGGAAUCUCAACAGAGGAUUGAGCAUCA
B18: chr4:41262718:41262719:+_ENSG00000154277_ENST00000284440|perfect_dup|motif|central (ssRNA)
RNA: GGGAGUUCUACAGUCCGACGAUCUCCGAUUGUGCCACAGGAAUUCCCAAUGGUCUGCUUCAUGAAGUACACUUUAGGACGGACUUCUUGUCCCUUCAGCUCUUCAAUCUGCUUUUUCCUGAAGUUCUCAUGCUGGGCCGUGAGCAACAGAGGAUUGAGCAUCA
B19: chr11:70266916:70266917:+_ENSMUSG00000018923_ENSMUST00000019067|mus_hu|FALSE|FALSE (ssRNA)
RNA: GGGAGUUCUACAGUCCGACGAUCGUAUGUCAGUUUCCAUCUCCUCUCUGAGCCUGUCAGGGUGUUUCUGGAGUGCAGAGCAGGAGCACCCUGCUGGAGAGGCCAAAGCAUAGCUGUGGGCAGGCUCGGGCUUCAGUUUUUCCACAACAGAGGAUUGAGCAUCA
B20: chr10:33190432:33190433:-_ENSG00000150093_ENST00000302278|hu_mus|hu_hu_hu_mus_True|18_28 (ssRNA)
RNA: GGGAGUUCUACAGUCCGACGAUCUACAUUUUCCAAACCUGCAUGUGAAUAAAACCCUGGCCACAGAGCCCCAAAACUACCCUACUGUGACUAAGAUGCUGCUGCUGUUGCAUUCAGUGUUGUGGGACCGCCUGAGUAGGAUUCCAACAGAGGAUUGAGCAUCA
B21: chr2:168009442:168009443:-_ENSMUSG00000051149_ENSMUST00000088001|mus_mus|FALSE|FALSE (ssRNA)
RNA: GGGAGUUCUACAGUCCGACGAUCGCGAUUACAGUAGAGGCAUUUGCUAGUAAAAUUGUGUAUUUUCAUAAUGUAGUUAGCUACGGCUGGGACUUUCUCAGCUUUAUGCUCCUUUUCGAAGUGAACGCUAUAGACAUUCUCAGGCAACAGAGGAUUGAGCAUCA
B22: chr4:76721835:76721836:+_ENSG00000138768_ENST00000264904|hu_mus|hu_hu_hu_mus_True|8_108 (ssRNA)
RNA: GGGAGUUCUACAGUCCGACGAUCGUUGGCUGGGGUUUUCUGAGACGCUCUGGAAUAUAACUCAUGUUUGCUAAUAAAUCCUAGUUUCUCUAUGAAAUUCUCUUUGCCAAUCCUCUUCUCUAUUAGUGUUUUAGCUUUCUCUUUCAACAGAGGAUUGAGCAUCA

molecular target: T1, UNK ZnF1-3; assay: nsRBNS (natural sequence RNA bind-n-seq); RBNS binding buffer (assumed for nsRBNS): 25 mM Tris pH 7.5, 150 mM KCl, 3 mM MgCl2, 0.01% Triton X-100, 500 ug/ml BSA, 20 U/ml SUPERase-In, 4 C; UNK is unkempt and MSI1 is Musashi-1; names of the RNAs are library labels; protein concentration not given here; high values mean tight binding

Row | Binder | binding signal [enrichment R]
1 | B1 | 0.716
2 | B2 | 1.02
3 | B3 | 1.49
4 | B4 | 0.656
5 | B5 | 1.15
6 | B6 | 2.72
7 | B7 | 1.08
8 | B8 | 1.03
9 | B9 | 0.379
10 | B10 | 0.664
11 | B11 | 0.997
12 | B12 | 1.25
13 | B13 | 1.2
14 | B14 | 1.26
15 | B15 | 1.01
16 | B16 | 1.06
17 | B17 | 2.21
18 | B18 | 0.827
19 | B19 | 0.718
20 | B20 | 1.21
21 | B21 | 1.09
22 | B22 | 0.667
